# Reference: PubChem BioAssay (NCATS)
# Inconclusive results, whose numbers are uncertain, are shown with a selection of clear calls. Potencies of inconclusive entries are doubtful fits and often do not repeat. The source made the active and inactive calls. The call rests on the fitted dose curve; in most records, active means well fitted inhibition curve with a large enough effect; inconclusive means small, poorly fitted or top-dose-only effect; inactive means flat fitted curve, though single readings scatter.
# Columns and labels:
# Assay in all cases: qHTS assay to identify novel small-molecules to repurpose for Merkel cell carcinoma treatment (AID 1296009); further: nearly all actives have a fitted effect of over 60% in size
# MKL-1 = conditions: MCC and control cell lines, CellTiter-Glo viability, 72 h; activity change, negative = cytotoxicity: at 46 µM (top of the series)
# Outline: (§1)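 Cells were incubated with compound for 72 hr at 37 degree celsius before CellTiter-Glo addition. Luminescence was normalized with no-cell wells as full cytotoxicity and DMSO as baseline.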
# WaGa = conditions: MCC and control cell lines, CellTiter-Glo viability, 72 h; series mostly up to 46 µM
# Outline: as §1
# MKL-2 = conditions: MCC and control cell lines, CellTiter-Glo viability, 72 h; activity change, negative = cytotoxicity: at 46 µM (top of the series)
# Outline: as §1
# UISO = conditions: MCC and control cell lines, CellTiter-Glo viability, 72 h; series mostly up to 46 µM
# Outline: as §1
# Potency means the concentration at half of the fitted maximal effect; tags describe the fitted curve by direction and shape.
smiles,measurement,setting,value
CO[C@@H](C(=O)N1Cc2[nH]nc(NC(=O)c3ccc(N4CCN(C)CC4)cc3)c2C1)c1ccccc1,Potency,MKL-1,"inconclusive: 0.105 µM [inhibitor, full curve]"
same,Potency,WaGa,"inconclusive: 0.105 µM [inhibitor, full curve]"
O=C(O)[C@H]1O[C@H](Oc2cc3oc(-c4ccccc4)cc(=O)c3c(O)c2O)[C@H](O)[C@@H](O)[C@H]1O,Potency,MKL-2,"inconclusive: 14.8 µM [inhibitor, partial curve, poor fit]"
Oc1ccc(-c2nc(-c3ccc(F)cc3)c(-c3ccncc3)[nH]2)cc1,Potency,MKL-1,"inconclusive: 37.2 µM [inhibitor, partial curve, poor fit]"
same,Potency,WaGa,"inconclusive: 26.4 µM [inhibitor, single point]"
N[C@@]1(C(=O)O)CS(=O)(=O)[C@H]2[C@H](C(=O)O)[C@H]21,Potency,MKL-2,inactive
N#CC(=Cc1ccc(O)c(O)c1)C(=O)NCc1ccccc1,Potency,MKL-1,"inconclusive: 33.2 µM [inhibitor, single point]"
same,Potency,UISO,"inconclusive: 23.5 µM [inhibitor, single point]"
same,Potency,WaGa,"inconclusive: 16.6 µM [inhibitor, partial curve, poor fit]"
CCC(=O)OCC(=O)[C@@]1(OC(=O)CC)[C@@H](C)C[C@@H]2[C@H]3CCC4=CC(=O)C=C[C@]4(C)[C@@]3(F)[C@@H](O)C[C@@]21C,Potency,MKL-2,"inconclusive: 8.33 µM [inhibitor, partial curve, poor fit]"
same,Potency,UISO,inactive
c1ccc2c(-c3cnn4cc(-c5ccc(N6CCNCC6)cc5)cnc34)ccnc2c1,Potency,MKL-2,"inconclusive: 2.35 µM [inhibitor, full curve, poor fit]"
same,Potency,UISO,"inconclusive: 18.7 µM [inhibitor, partial curve, poor fit]"
same,Potency,WaGa,"inconclusive: 26.4 µM [inhibitor, single point]"
N=C1SC(=Cc2ccc(-c3ccc4c(c3)C(=O)NC4=O)o2)C(=O)N1c1ccc(Br)cc1,Potency,MKL-2,"inconclusive: 14.8 µM [inhibitor, partial curve, poor fit]"
CC(=O)O[C@]1(C(C)=O)CC[C@H]2[C@@H]3C=C(Cl)C4=CC(=O)[C@@H]5C[C@H]5[C@]4(C)[C@@H]3CC[C@@]21C,Potency,MKL-2,"inconclusive: 23.5 µM [inhibitor, partial curve]"
same,Potency,UISO,"inconclusive: 23.5 µM [inhibitor, single point]"
CN[C@@H]1[C@@H](O)[C@@H](O[C@@H]2[C@@H](O)[C@H](O[C@H]3O[C@H](CN)[C@@H](O)[C@H](O)[C@@H]3O)[C@@H](N)C[C@@H]2NC(=O)[C@@H](O)CN)OC[C@]1(C)O,Potency,MKL-2,"inconclusive: 8.33 µM [inhibitor, single point]"
COc1ccc(-c2oc3c(CC=C(C)C)c(OC4O[C@H](CO)[C@@H](O)[C@H](O)[C@@H]4O)cc(O)c3c(=O)c2OC2O[C@@H](C)[C@H](O)[C@@H](O)[C@@H]2O)cc1 (stereo partly specified),Potency,MKL-2,"inconclusive: 29.6 µM [inhibitor, single point]"
same,Potency,UISO,"inconclusive: 20.9 µM [inhibitor, single point]"
CN1CCC(=C2c3ccccc3C=Cc3ccccc32)CC1,Potency,MKL-2,active: 16.8 µM
same,Potency,UISO,"inconclusive: 29.9 µM [inhibitor, single point]"
same,Potency,WaGa,"inconclusive: 20.9 µM [inhibitor, partial curve, poor fit]"
COc1ccc2cccc(CCNC(C)=O)c2c1,Potency,MKL-2,inactive
CC[C@H]1OC(=O)[C@H](C)[C@@H](O[C@H]2C[C@@](C)(OC)[C@@H](O)[C@H](C)O2)[C@H](C)[C@@H](O[C@@H]2O[C@H](C)C[C@H](N(C)C)[C@@H]2O)[C@](C)(O)C[C@@H](C)CN(C)[C@H](C)[C@@H](O)[C@]1(C)O,Potency,MKL-2,"inconclusive: 26.4 µM [inhibitor, single point]"
same,Potency,UISO,inactive
C[C@]12CC[C@H](O)CC1=CC[C@@H]1[C@H]2CC[C@]2(C)C(c3cccnc3)=CC[C@H]12,Potency,MKL-2,inactive
same,Potency,UISO,inactive
C=C(C)[C@@H]1CC[C@]2(C)CC[C@]3(C)[C@H](CC[C@@H]4[C@@]5(C)CC[C@H](O)C(C)(C)[C@H]5CC[C@]43C)[C@@H]12,Potency,MKL-2,inactive
CCCCc1ccc(NS(=O)(=O)c2ccc(C)c(C(=O)N3CCN(c4cccc(C)c4C)CC3)c2)cc1,Potency,MKL-2,inactive
same,Potency,UISO,"inconclusive: 33.2 µM [inhibitor, single point]"
